# Laboratory results reported in PubChem BioAssay AID1508642 (National Center for Advancing Translational Sciences (NCATS), 2021).
# The campaign covered roughly 43,000 compounds. About 200 (0.47%) were called active. Another 12% or so got no clear call; they are omitted. Calls follow the shape of the dose curve; as a rule, active = well fitted cell-killing curve with a large enough effect; inconclusive = small, poorly fitted or top-dose-only effect, or effect the other way; inactive = flat fitted curve, though single readings scatter. The list shows a part of the results.
# Assay: Cell viability qHTS assay in S16 Pmp22-F2sN cells; also: nearly all actives have a fitted effect of over 65% in size
# Conditions: S16 Pmp22-F2sN Schwann cells viability, CellTiter-Glo, 24 h; series mostly up to 57.5 µM; activity change, negative = cytotoxicity: at the top concentration
# In short: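 S16 Pmp22-F2sN Schwann cells (500-1,000/well) in phenol-red-free DMEM with 10% FBS received 23 nL compound by pin tool for 24 h at 37 °C. Viability was then read as CellTiter-Glo luminescence after 15 min at room temperature.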
# % is scaled to controls: 0 for no effect and ±100 for the full control effect.
row,Compound,"activity change, negative = cytotoxicity"
1,CCc1nn(CC(=O)NCc2ccc(C)cc2)c(=O)c2cc3occc3n12,inactive: 8.22%
2,O=C(CCn1c(=O)c2ccccc2n(Cc2cccc(F)c2)c1=O)NCc1ccc2c(c1)OCO2,inactive: 3.76%
3,COc1ccc(N2CCN(c3nc4ccc(C(=O)c5ccccc5)cc4n4cnnc34)CC2)cc1,inactive: 19%
4,O=C(CN1C(=O)COc2ccc(S(=O)(=O)N3CCCCCC3)cc21)N1CCN(c2ccc(F)cc2)CC1,inactive: -2.42%
5,COc1ccc(-c2cc3nc(C)c(CCC(=O)NCCc4ccc(Cl)cc4)c(C)n3n2)c(OC)c1,inactive: -5.22%
6,Cc1ccc(Cn2c(=O)c3cccnc3n(Cc3ccc(C)cc3)c2=O)cc1,inactive: 13.4%
7,Cc1ccc(Cn2c(=O)n(-c3cccc(C(F)(F)F)c3)c(=O)c3c(C)c(C)sc32)c(C)c1,inactive: -6.9%
8,Cc1cn(C)c(CC(=O)Nc2cccc(C#N)c2)c1C(=O)O,inactive: 1.32%
9,Cc1ccc(CSc2ncc(Cl)c(C(=O)Oc3ccccc3F)n2)cc1,inactive: 6.29%
10,CCOC(=O)N1CCC(NC(=O)c2cnn(-c3ccc(OC)cc3)c2C2CCN(C(=O)OC(C)(C)C)CC2)CC1,inactive: -1.7%
11,Cc1ccccc1NC(=O)COc1ccc2oc3c(c2c1)CCCC3,inactive: -0.34%
12,Clc1ccc(-c2noc3ncnc(NC4CCCCC4)c23)cc1,inactive: -0.473%
13,Cc1ccc(CCNC(=O)c2cnc3c(-c4ccc(F)cc4)c(C)nn3c2C)cc1,inactive: -3.83%
14,Cc1ccccc1OCCn1cc(C(=O)c2ccco2)c2ccccc21,inactive: -1.25%
15,Cc1ccc(-c2nn3c(=O)cc(CN4CCN(C(=O)Nc5cccc(C(F)(F)F)c5)CC4)nc3s2)cc1,inactive: 13.9%
16,NC(=O)Cn1c(=O)n(CCCCCC(=O)NCc2ccc3c(c2)OCO3)c(=O)c2sccc21,inactive: 14.4%
17,CC(CNC(=O)c1ccc(Cn2c(=O)c3cccn3c3cccnc32)cc1)c1ccccc1 (stereo unspecified),inactive: 0.458%
18,COc1cc(CNC(=O)c2ccc3nc(Cc4ccccc4)oc3c2)cc(OC)c1OC,inactive: -32.2%
19,COc1ccc2c(c1)c1c(c(=O)n(-c3ccc(OC)c(OC)c3)c(=O)n1Cc1ccc(F)cc1)n2C,inactive: -14.9%
20,Cc1cn2c(=O)cc(COC(=O)c3ccc(NC(=O)c4ccccc4C)cc3)nc2s1,inactive: 13.2%
21,Cc1ccccc1CS(=O)(=O)Cc1ccc(C(=O)NCCc2ccc(Cl)cc2)o1,inactive: -20.2%
22,COc1cccc(Cn2nnc(C(=O)NCc3ccc(Cl)cc3Cl)c2N)c1,inactive: -16.2%
23,CCc1cccc(NC(=O)Cn2c(=O)n3nc(-c4cccc(F)c4)nc3c3ccccc32)c1,inactive: 11.4%
24,Cc1ccccc1C(=O)Nc1sc2c(c1C(=O)N1CCC(C)CC1)CCC(C)C2 (stereo unspecified),inactive: 21.6%

row,Compound,"activity change, negative = cytotoxicity"
1,CCOc1cc2[nH]c(=O)n(CCCCC(=O)N3CCN(c4ccccc4OC)CC3)c(=O)c2cc1OCC,inactive: 2.26%
2,O=c1c(S(=O)(=O)c2ccccc2)cn(Cc2ccccc2)c2cc(N3CCCC3)c(F)cc12,inactive: -18.2%
3,Cc1nn(C)c2c1c(C(F)(F)F)cc(=O)n2Cc1ccc(Br)cc1F,inactive: 6.83%
4,Cn1c(=O)c2c(nc(CN3CCN(c4ccccc4F)CC3)n2Cc2ccc(F)cc2)n(C)c1=O,inactive: -26%
5,COc1ccc(OC)c(C2CC(=O)Nc3c2c(=O)[nH]c2nc4ccccc4n32)c1 (stereo unspecified),inactive: -7.64%
6,CCOC(=O)C1CCN(CCC(=O)Nc2ccccc2OC)CC1,inactive: -1.27%
7,N#Cc1ccc(NC(=O)COCc2cc(-c3ccco3)on2)cc1,inactive: 3.08%
8,Cc1cccc(NC(=O)CSc2nc3n[nH]c(C)c3c(=N)n2-c2cccc(Cl)c2)c1,inactive: -24.2%
9,Cc1cc(C)cc(C(=O)NCCc2sc(-c3ccc(F)cc3)nc2C)c1,inactive: -2.61%
10,O=S(=O)(NCC(c1ccco1)N1CCN(c2ccccc2)CC1)c1cc(F)ccc1F (stereo unspecified),inactive: -16.9%
11,Cc1cc(C)cc(N2CCn3c2nc2c3c(=O)n(Cc3c(F)cccc3Cl)c(=O)n2C)c1,inactive: 6.25%
12,CCc1ccc(/C=C(/C#N)c2nc(-c3ccc(C)cc3)cs2)cc1,inactive: 26.5%
13,CC(C)(C)OC(=O)N1CCC(c2c(C(=O)NCCN3CCOCC3)cnn2-c2cccc(Cl)c2)CC1,inactive: 1.1%
14,O=C(Cn1c(=O)c(CNc2ccccc2)cc2cc3c(cc21)OCCO3)Nc1ccccc1Cl,inactive: -16.4%
15,CCc1ccc2oc(-c3ccc(C)c(NC(=O)Cc4ccccc4)c3)nc2c1,inactive: 6.71%
16,Cc1c(C(=O)Nc2ccc(F)c(Cl)c2)sc2nc3n(c(=O)c12)CCC3,inactive: -6.96%
17,COc1ccc(NC(=O)c2ccco2)cc1NC(=O)c1ccc(C#N)cc1F,inactive: 4.64%
18,O=C(NCCc1ccccc1)C1CCN(c2nc3ccccc3nc2C(F)(F)F)CC1,inactive: 14%
19,CCCCCSc1nnc2c(n1)[nH]c1c(C)cccc12,inactive: -19.6%
20,COc1ccccc1N1CCN(c2ncnc3c2cnn3-c2ccc(C)cc2)CC1,inactive: -1.82%
21,COCCn1c(SCC(=O)c2ccc(C)cc2)nc2cc(C(=O)NC3CCCC3)ccc2c1=O,inactive: -0.583%
22,Cc1cc(C)c(NC(=O)c2oc3c(c2C)-c2[nH]ncc2CC3)c(C)c1,inactive: 2.98%
23,Cc1cccc(CN2CCN(CC(=O)NCCc3ccc(Cl)cc3)C2=O)c1,inactive: -0.64%
24,CCCCOc1ccc(C(=O)NCCc2sc3nc(-c4ccc(OC)cc4)nn3c2C)cc1,inactive: 8.64%

row,Compound,"activity change, negative = cytotoxicity"
1,O=C(Nc1ccc(N2CCN(c3ccc(F)cc3)CC2)c(C(=O)O)c1)c1cccs1,inactive: 2.35%
2,CCOc1cc2c(cc1OCC)C(CC(=O)O)N(C(=O)Nc1ccc(Br)c(C)c1)CC2 (stereo unspecified),inactive: -11.1%
3,CCN(CC)c1nn2c(=O)c(C(=O)NCCc3ccccc3C)cnc2s1,inactive: -9.46%
4,O=C(NCc1ccc(Cl)cc1)C1CCC(CNS(=O)(=O)c2ccccc2)CC1 (stereo unspecified),inactive: -14.6%
5,CCOc1ccc(N(C)C(=O)C2CCN(S(=O)(=O)c3c(C)noc3/C=C/c3ccc(C)cc3)CC2)cc1,inactive: -12.1%
6,CCOC(=O)c1ccccc1NC(=O)CN1C(=O)CC(c2ccccc2)Sc2ccccc21 (stereo unspecified),inactive: 1.15%
7,COc1ccc(Cl)cc1NC(=O)CSc1nc2c(oc3ccccc32)c(=O)n1Cc1ccco1,inactive: 14%
8,CCCCOc1ccc(C(=O)NCc2cn3cccc(C)c3n2)cc1,inactive: 3.01%
9,Cc1cccc(-c2nc3scc(CCNS(=O)(=O)c4ccc(F)c(C(F)(F)F)c4)n3n2)c1,inactive: 1.35%
10,COc1ccc(CCNC(=O)c2cc3c(=O)n(C)c4ccccc4c3s2)cc1OC,inactive: -0.438%
11,Cc1ccc(C)c(N2CCN(S(=O)(=O)c3ccc(C(=O)N(C)C)s3)CC2)c1,inactive: 1.91%
12,CCc1cc2c(cc3c(=O)n(CC(=O)N4CCN(c5cccc(C)c5C)CC4)nc(CC)n32)s1,inactive: 8.02%
13,CCc1ccccc1NC(=O)CCC(=O)N1CC(C)Oc2ccc(C)cc21 (stereo unspecified),inactive: -13.2%
14,COc1ccc(CCNCc2c(C(=O)O)c(C)n(Cc3cccc(Cl)c3)c2C)c(OC)c1OC,inactive: -0.0714%
15,CCn1nnc2cc(C(=O)Nc3cc(C)ccc3C)ccc21,inactive: -9.95%
16,O=C(NCc1ccc(F)cc1)C(=O)Nc1ccc2nc3n(c(=O)c2c1)CCCCC3,inactive: 8.76%
17,Cc1ccc(-c2cc3ncc4c(n3n2)-c2cc(Cl)ccc2OC4)cc1,inactive: 17.1%
18,COc1ccc(NC(=O)CCNS(=O)(=O)c2ccc3c(c2)CCCC(=O)N3)cc1,inactive: 16.4%
19,COc1ccc(NC(=O)CC2C(=O)N(c3cccc(OC)c3)C(=O)N2CCC2=CCCCC2)cc1 (stereo unspecified),inactive: -26.6%
20,O=C(Cn1cc(S(=O)(=O)Cc2ccccc2Cl)c2ccccc21)NCCc1ccccc1,inactive: 24.3%
21,COc1ccc(NC(=O)c2c(NC(=O)COc3ccccc3)sc3c2CCCCC3)cc1,inactive: -2.62%
22,CCOc1ccccc1CNS(=O)(=O)c1cc2c(cc1C)NC(=O)CO2,inactive: 0.828%
23,Cc1ccccc1CNC(=O)CCC(=O)N1CCSc2ccccc21,inactive: -14.2%
24,CC1CCC(NC(=O)C2(C)Cc3ccccc3C(=O)N2Cc2ccc(Cl)cc2)CC1 (stereo unspecified),inactive: 7.24%

row,Compound,"activity change, negative = cytotoxicity"
1,Cc1ccc(NS(=O)(=O)c2ccc3nc(-c4ccccc4)[nH]c3c2)c(Br)c1,inactive: -3.65%
2,Cc1ccc(Nc2nc3ccc(C(=O)c4ccccc4)cc3n3c(C)nnc23)c(C)c1,inactive: -0.122%
3,COc1ccc(-c2noc(CC(=O)Nc3cc(OC)ccc3OC)n2)cc1,inactive: -22.8%
4,O=C(/C=C/c1ccc(Cl)cc1)N1CCC(c2nc3ccccc3o2)CC1,inactive: 0.88%
5,CCCCN(CC)CCCNC(=O)c1cn(CC)c2ccc(S(=O)(=O)N3CCc4ccccc4C3)cc2c1=O,inactive: -24.7%
6,CCCn1c(=O)c2sccc2n2c(CCCC(=O)N3CCN(c4cccc(Cl)c4)CC3)nnc12,inactive: 11%
7,CC(=O)c1cccc(NC(=O)CN2C(=O)CC(c3ccc(C)cc3C)=Nc3ccccc32)c1,inactive: 5.17%
8,CCCCNS(=O)(=O)c1ccc2nc(-c3cccnc3)cc(C(=O)NC(C)C)c2c1,inactive: -12.1%
9,Cn1nc(C(=O)N2CCN(c3ccccc3F)CC2)c2c1-c1ccccc1S(=O)(=O)C2,inactive: -1.01%
10,O=C(CN1C(=O)c2cccc3cccc1c23)Nc1ccccc1Br,inactive: 3.14%
11,CCCC1N=C2c3ccccc3N=C(SCC(=O)NCCc3ccc(Cl)cc3)N2C1=O (stereo unspecified),inactive: -8.07%
12,O=C(c1cc(-c2ccc(F)cc2)on1)N1CCN(c2ccc(F)cc2)CC1,inactive: 16%
13,CC(C)NC(=O)c1ccc2c(c1)nc1n2CCCCC1,inactive: 10.1%
14,CCOC(=O)COc1ccc(C)cc1C(=O)c1ccn2nc(-c3ccc(Cl)cc3)cc2n1,inactive: 8.38%
15,CCOC(=O)c1ccccc1NC(=O)c1cc2ccc3cccnc3c2[nH]1,inactive: -1.99%
16,CCCOC(=O)CSc1nnc(-c2ccccc2)o1,inactive: -0.136%
17,CCn1c(C(=O)Nc2ccc(C)cc2C)cc2sc(Cl)cc21,inactive: -23.6%
18,Cc1oc2ncnc(N3CCOCC3)c2c1C(=O)NCCc1ccccc1,inactive: 19.8%
19,CCOc1ccc(OCC(=O)NCCS(=O)(=O)N2CCN(c3cccc(Cl)c3)CC2)cc1,inactive: -2.47%
20,Cc1cccc(NC(=O)N2CCC(N3CCN(Cc4ccccc4)C(=O)C3=O)CC2)c1C,inactive: 19.7%
21,CC(C)c1ccc(CNc2nc(-c3ccco3)nn2S(=O)(=O)c2ccc(F)cc2)cc1,inactive: -24.3%
22,Cc1cccc(N2CCN(Cc3cc(=O)oc4cc(C)ccc34)CC2C)c1 (stereo unspecified),inactive: 14.6%
23,Cc1ccccc1N1CC(c2nnc(NC(=O)c3ccco3)s2)CC1=O (stereo unspecified),inactive: -0.54%
24,COc1cc(C2Nc3ccccc3-c3nnc(SCc4ccc(C)cc4)nc3O2)cc(OC)c1O (stereo unspecified),inactive: -8.61%
